Assay results taken from paper PMC4336329 (PLoS ONE, 2015).
In all, about 310,000 compounds went through this assay and about 14,000 (4.5%) showed an effect of 50% or more. Effects have a minus sign here. This is one part of the list.

Biological target: human ether-à-go-go-related gene (hERG) potassium channel (human, UniProt Q12809)
Assay: primary screen, population patch clamp on CHO cells stably expressing hERG
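Further: peak tail current of the secondary pulse compared with the same well before compound.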

human ether-à-go-go-related gene (hERG) potassium channel, sequence (Q12809 whole entry, looked up): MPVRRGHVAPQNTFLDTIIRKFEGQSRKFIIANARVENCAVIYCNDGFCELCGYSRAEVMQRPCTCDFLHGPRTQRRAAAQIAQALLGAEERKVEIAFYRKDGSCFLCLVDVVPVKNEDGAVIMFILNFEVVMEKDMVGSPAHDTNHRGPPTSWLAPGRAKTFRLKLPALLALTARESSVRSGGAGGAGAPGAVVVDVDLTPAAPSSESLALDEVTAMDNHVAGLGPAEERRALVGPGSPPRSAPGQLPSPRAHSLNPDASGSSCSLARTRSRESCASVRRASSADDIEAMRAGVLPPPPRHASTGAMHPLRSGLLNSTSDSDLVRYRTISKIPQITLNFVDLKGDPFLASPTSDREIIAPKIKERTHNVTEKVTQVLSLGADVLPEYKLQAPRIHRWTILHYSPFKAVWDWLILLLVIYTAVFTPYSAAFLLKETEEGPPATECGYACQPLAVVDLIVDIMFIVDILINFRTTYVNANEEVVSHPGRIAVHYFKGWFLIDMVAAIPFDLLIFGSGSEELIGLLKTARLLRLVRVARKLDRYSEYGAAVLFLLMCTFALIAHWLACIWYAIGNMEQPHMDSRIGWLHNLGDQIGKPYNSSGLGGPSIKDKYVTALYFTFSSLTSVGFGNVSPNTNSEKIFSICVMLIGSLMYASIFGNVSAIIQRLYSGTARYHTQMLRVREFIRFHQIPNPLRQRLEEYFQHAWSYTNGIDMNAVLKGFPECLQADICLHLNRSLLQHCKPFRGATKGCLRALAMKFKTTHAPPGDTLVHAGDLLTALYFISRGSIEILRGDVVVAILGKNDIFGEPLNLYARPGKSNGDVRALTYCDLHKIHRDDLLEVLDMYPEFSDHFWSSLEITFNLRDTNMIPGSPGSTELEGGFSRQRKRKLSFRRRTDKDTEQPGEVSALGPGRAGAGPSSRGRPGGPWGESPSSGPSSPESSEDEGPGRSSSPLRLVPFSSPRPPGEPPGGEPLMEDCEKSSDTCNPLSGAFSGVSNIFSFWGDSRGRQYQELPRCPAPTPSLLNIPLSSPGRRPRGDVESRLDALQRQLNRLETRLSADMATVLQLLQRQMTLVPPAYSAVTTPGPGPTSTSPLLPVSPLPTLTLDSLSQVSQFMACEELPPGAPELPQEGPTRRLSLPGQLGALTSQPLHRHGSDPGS

First: Cc1nn(C)c(Oc2cccc(Cl)c2)c1C(=O)O
Second: C/C(Cn1nnc([N+](=O)[O-])n1)=N\NC(=O)c1cccc(Cl)c1
The “hERG current change (%, negative = inhibition) at 10uM” value of the first is higher: -6.18% for the first, -11.7% for the second.

Going from Cc1cc(C(=O)NC2=NCCS2)cs1 to Cc1cccc(C(=O)Nc2ccc3c(c2)nc(C)n3C)c1, the “hERG current change (%, negative = inhibition) at 10uM” value rises from -18% to -1.73%.

Compared with O=C1CCC[C@@H]2Cc3[nH]c4c(Cl)ccc(Cl)c4c3[C@@H]3CCN1[C@H]23, CC1CCCCC1NC(=O)CCS(=O)(=O)c1cc2c(cc1Cl)NC(=O)CO2 (stereo not drawn) is lower in “hERG current change (%, negative = inhibition) at 10uM” value: -3.18% for the first, -30.5% for the second.

Compared with O=C(Nc1nc(-c2ccc3ccccc3c2)cs1)c1ccc(N2C(=O)CCC2=O)cc1, O=C(Nc1nc(-c2ccccn2)cs1)c1ccc(S(=O)(=O)N2CCCCC2)cc1 is lower in “hERG current change (%, negative = inhibition) at 10uM” value: 15.2% for the first, -12.4% for the second.

Compared with CCC(=O)Nc1cccc(NC(=S)NC(=O)c2ccc(Cl)cc2)c1, COc1ccc(C(=O)NC(=S)NCc2ccccc2)cc1 is lower in “hERG current change (%, negative = inhibition) at 10uM” value: 16.3% for the first, -0.211% for the second.

Compared with Cc1c(C(=O)N2CCCC2)sc(NC(=O)c2cccs2)c1C#N, CCOc1ncccc1C(=O)Nc1ccc(Cl)c(S(=O)(=O)N2CCCC2)c1 is higher in “hERG current change (%, negative = inhibition) at 10uM” value: -0.408% for the first, 6.26% for the second.

First: CC[N+](CC)(CC)CCOc1cccc(OCC[N+](CC)(CC)CC)c1OCC[N+](CC)(CC)CC.[I-]
Second: COc1ccccc1OCCSc1ncnc2nc[nH]c12
The “hERG current change (%, negative = inhibition) at 10uM” value of the first is higher: 25.2% for the first, 4.63% for the second.

Compared with Cc1ccccc1C(=O)N1CCN(c2ccccn2)CC1, COc1cccc(/C=N/N2CCN(c3ccccc3OC)CC2)c1 is lower in “hERG current change (%, negative = inhibition) at 10uM” value: 3.59% for the first, -19.1% for the second.

Going from O=C(NCC(=O)N1CCC2(CC1)NCCc1[nH]cnc12)c1cccc(Cl)c1 to CC(C)Cc1nnc(NC(=O)CCC(=O)N2CCN(Cc3ccccc3)CC2)s1, the “hERG current change (%, negative = inhibition) at 10uM” value falls from 12.5% to -11.6%.

Compared with Cc1ccc(Nc2nc(NCC3CCCO3)nc(N)c2[N+](=O)[O-])cc1C (stereo not drawn), CCCOC(=O)c1ccc(Nc2nc(C)cc(=O)[nH]2)cc1 is lower in “hERG current change (%, negative = inhibition) at 10uM” value: 14.4% for the first, 3.46% for the second.

First: Cc1ccc(C2C3C(=O)N(c4ccc(C)cc4)C(=O)C3N3CCCN23)cc1 (stereo not drawn)
Second: Cc1c(NC(=O)CN2c3ccccc3CC2C)c(=O)n(-c2ccccc2)n1C (stereo not drawn)
The “hERG current change (%, negative = inhibition) at 10uM” value of the first is higher: 8.13% for the first, 5.82% for the second.

First: CC(=O)NC1C(=O)N=C(SCC(=O)Nc2ccc(C(F)(F)F)cc2Cl)NC1=O (stereo not drawn)
Second: O=C(Cc1ccccc1)Nc1ccc(NC(=O)Cc2ccccc2)c(Cl)c1
The “hERG current change (%, negative = inhibition) at 10uM” value of the first is lower: 27.8% for the first, 34.3% for the second.

Compared with COCCNS(=O)(=O)c1ccccc1, CCN(c1ccccc1)S(=O)(=O)c1nnc(NC(=O)c2ccccc2OC)s1 is lower in “hERG current change (%, negative = inhibition) at 10uM” value: 9.4% for the first, -0.472% for the second.

First: COC(=O)C1=C(c2ccccc2OCc2ccccc2)C[C@@H]2CC[C@H]1N2C(=O)NCc1ccc([N+](=O)[O-])cc1
Second: CCOc1ccccc1NC(=O)Cn1c(=O)n(-c2ccccc2)c(=O)c2oc3ccccc3c21
The “hERG current change (%, negative = inhibition) at 10uM” value of the first is lower: -48.9% for the first, -16.4% for the second.

First: CCOc1cc(C(=O)Nc2ccc(N3CCOCC3)cc2)cc(Br)c1OC
Second: CCOc1ccc(NC(=O)N2CCC(NC(=O)C(Cc3ccccc3OC)NC(C)=O)CC2)cc1 (stereo not drawn)
The “hERG current change (%, negative = inhibition) at 10uM” value of the first is higher: 15.3% for the first, 12.7% for the second.

Compared with CC(C)(C)NC(=O)CN(C(=O)CNC(=O)c1cccs1)c1ccc2c(c1)OCCO2, CC(C)c1ccc(N(CC(=O)NC(C)(C)C)C(=O)CCC(=O)Nc2nccs2)cc1 is lower in “hERG current change (%, negative = inhibition) at 10uM” value: 9.71% for the first, 2.7% for the second.

Going from C/C(N)=C(/C#N)C(=O)CSc1nnc(NC(C)C)s1 to CCn1c(SC(C)C(=O)OC)nnc1-c1c[nH]c2ccccc12 (stereo not drawn), the “hERG current change (%, negative = inhibition) at 10uM” value falls from 15.7% to -5.23%.

First: CC(C)Oc1cccc(C(=O)C2CCCN(Cc3ccc(Oc4ncccn4)cc3)C2)c1 (stereo not drawn)
Second: COc1ccc(CC(=O)Nc2ccc(S(=O)(=O)Nc3ncccn3)cc2)cc1OC
The “hERG current change (%, negative = inhibition) at 10uM” value of the first is lower: -62.6% for the first, -5.88% for the second.

Going from COc1ccc(C2CC(=O)C(C=NCCN3CCN(C(=S)Nc4ccccc4)CC3)=C(O)C2)cc1OC (stereo not drawn) to COc1ccccc1NC(=O)CCN1CCN(Cc2ccccc2)CC1, the “hERG current change (%, negative = inhibition) at 10uM” value falls from -20.1% to -22.3%.

Going from CCCCc1nnc(NC(=O)CN(C)S(=O)(=O)c2ccc(C)cc2)s1 to CCCC(=O)Nc1nc(-c2ccc(OC)cc2)cs1, the “hERG current change (%, negative = inhibition) at 10uM” value rises from 9.69% to 10.4%.

Going from Cc1cc(C)cc(NC(=O)C(=O)NCCCN2CCCC2=O)c1 to COC(=O)c1ccc(NC(=O)CN2C(=O)CSC2=O)cc1, the “hERG current change (%, negative = inhibition) at 10uM” value rises from -8.76% to 8.22%.

First: CSCCC(NC(=O)c1cccc(C)c1)C(=O)OCN1C(=O)c2ccccc2C1=O (stereo not drawn)
Second: Cc1ccccc1OCC(=O)N/N=C1\CCOc2c(C)cccc21
The “hERG current change (%, negative = inhibition) at 10uM” value of the first is lower: -1.61% for the first, 5.3% for the second.

First: Cc1ccc2c(c1)-c1cc(C)nn1C(c1sccc1C)N2 (stereo not drawn)
Second: COc1ccc(C2C(C(=O)Nc3cccnc3)=C(C)Nc3nc(-c4cccs4)nn32)cc1 (stereo not drawn)
The “hERG current change (%, negative = inhibition) at 10uM” value of the first is higher: -2.98% for the first, -39.6% for the second.

Compared with CCCOc1ccccc1NP(=O)(Oc1ccccc1)Oc1ccccc1, CC(SCc1ccccc1)C(=O)Nc1ccccc1 (stereo not drawn) is lower in “hERG current change (%, negative = inhibition) at 10uM” value: 15.7% for the first, 9.34% for the second.

Going from CC1Cc2nc(SCC(=O)Nc3ccc4c(c3)OCO4)n(CCc3ccccc3)c(=O)c2S1 (stereo not drawn) to Cn1c(=O)[nH]c(=O)c2c1nc(N1CCOCC1)n2CCc1ccccc1, the “hERG current change (%, negative = inhibition) at 10uM” value falls from 3.93% to -0.713%.

Compared with Cc1ccc2oc(/N=C(\N)NC(=O)C(C)(C)C)nc2c1, CC(C)(C)/C(O)=C/c1nc2cc(Cl)ccc2oc1=O is higher in “hERG current change (%, negative = inhibition) at 10uM” value: 4.85% for the first, 13.5% for the second.

Compared with C=CCn1c(O)c(N=Nc2c(C)n(C)n(-c3ccccc3)c2=O)c(=O)[nH]c1=S, Cc1noc(C)c1COC(=O)[C@@H](NC(=O)c1ccccc1)C(C)C is higher in “hERG current change (%, negative = inhibition) at 10uM” value: -1.57% for the first, 11.5% for the second.

Compared with CCc1nc(N2CCN(C(=O)c3ccco3)CC2)c(C#N)c2c1COC(C)(C)C2, Cc1nn2c(nc(N3CCCCC3)c3ccccc32)c1C=O is higher in “hERG current change (%, negative = inhibition) at 10uM” value: -52.1% for the first, -23.3% for the second.

Compared with O=C(NC1CCCCCC1)c1cc(S(=O)(=O)N2CCC3(CC2)OCCO3)ccc1F, O=C(NCC1CCCO1)C1CCN(S(=O)(=O)c2ccc(Br)cc2)CC1 (stereo not drawn) is lower in “hERG current change (%, negative = inhibition) at 10uM” value: -7.15% for the first, -23.9% for the second.

Going from Cc1c(C(=O)N(Cc2cccs2)C2CCS(=O)(=O)C2)oc2ccccc12 (stereo not drawn) to O=C(c1ccc(Cl)cc1)c1oc2ccccc2c1CS(=O)(=O)c1ccccc1, the “hERG current change (%, negative = inhibition) at 10uM” value rises from -50.2% to -21.5%.

Compared with O=C(Cc1ccc(-n2cccc2)cc1)N1CCc2ccccc21, CCC(=O)N1CCc2cc(S(=O)(=O)NC(C(=O)NCc3ccccc3)C(C)C)ccc21 (stereo not drawn) is lower in “hERG current change (%, negative = inhibition) at 10uM” value: 16.1% for the first, 13.2% for the second.

First: CCc1ccc(NC(=O)c2ccc3c(c2)C(=O)N(CCOC)C3Nc2ccc(CC)cc2)cc1 (stereo not drawn)
Second: COc1ccc(CNC(=O)Cc2c[nH]c3ccccc23)cc1OC
The “hERG current change (%, negative = inhibition) at 10uM” value of the first is lower: 4.53% for the first, 11.4% for the second.

Compared with O=C1CCCc2cc3c(cc21)CC1(C3)Cc2cc3c(cc2C1)C(=O)CCC3, O=S(=O)(c1cccc(-c2nnco2)c1)N1CCCC1 is lower in “hERG current change (%, negative = inhibition) at 10uM” value: 19.8% for the first, -1.71% for the second.

First: COc1ccc(OCC(O)CN2CCNCC2)cc1.Cl (stereo not drawn)
Second: COc1ccc(CSCC(=O)NN=C2CCN(C)CC2)cc1
The “hERG current change (%, negative = inhibition) at 10uM” value of the first is higher: 18.8% for the first, 1.59% for the second.

Compared with CCOc1ccc(C(=O)NNC(=O)CNC(=O)c2ccc(C)s2)cc1OC, COc1ccc(CCNC(=O)C/C(C)=N/NC(=O)c2ccc([N+](=O)[O-])cc2Cl)cc1OC is higher in “hERG current change (%, negative = inhibition) at 10uM” value: 2.08% for the first, 9.46% for the second.

First: CCCCOc1ccc(N(CC(=O)NCC2CCCO2)C(=O)CCC(=O)Nc2nccs2)cc1 (stereo not drawn)
Second: COc1ccc(CNC(=O)C(=O)NCC2OCCCN2S(=O)(=O)c2cccs2)cc1 (stereo not drawn)
The “hERG current change (%, negative = inhibition) at 10uM” value of the first is lower: -2.14% for the first, 2.53% for the second.

First: CC(C)OCCCNC(=O)Cc1ccc(Br)cc1
Second: O=C(NCCc1ccccn1)c1ccc(OC(F)F)cc1
The “hERG current change (%, negative = inhibition) at 10uM” value of the first is higher: 19.8% for the first, -24.7% for the second.

Compared with CC(C)C(NC(=O)c1ccccc1)C(=O)N1CCN(C/C=C/c2ccccc2)CC1 (stereo not drawn), O=C(O)C(F)=C(c1ccccc1)c1ccccc1 is higher in “hERG current change (%, negative = inhibition) at 10uM” value: -41.2% for the first, 13.3% for the second.

Compared with CCn1cc(C(=O)NC(=S)Nc2ccccc2[N+](=O)[O-])cn1, CCn1c(SCc2cccc(C(=O)O)c2)nnc1-c1ccc(Cl)cc1 is higher in “hERG current change (%, negative = inhibition) at 10uM” value: -3.04% for the first, 22.6% for the second.

First: CCOC(=O)C1=C(COC(=O)c2ncc(Cl)c(Cl)c2Cl)NC(=O)NC1C (stereo not drawn)
Second: CCOC(=O)N1CCN(C(=O)C2CCN(S(C)(=O)=O)CC2)CC1
The “hERG current change (%, negative = inhibition) at 10uM” value of the first is lower: -60.6% for the first, 13.2% for the second.

Compared with Cc1nn(C)c(C)c1/C=C(/C(=O)C(C)C)n1cncn1, Cc1cc(C)c2sc(N(CCCN(C)C)C(=O)c3ccc(Br)s3)nc2c1.Cl is lower in “hERG current change (%, negative = inhibition) at 10uM” value: 13.4% for the first, -43.7% for the second.

First: C(=N\Nc1nc2ccccc2[nH]1)/c1cccs1
Second: Clc1ccc(-c2nn3c(-c4ccccc4)nnc3s2)cc1
The “hERG current change (%, negative = inhibition) at 10uM” value of the first is higher: -3.21% for the first, -7.2% for the second.

Going from COc1ccc(NC2=NC(C)(C)CS2)cc1 to COc1ccc(OC(C)C(=O)NC2CC(C)(C)NC(C)(C)C2)cc1 (stereo not drawn), the “hERG current change (%, negative = inhibition) at 10uM” value falls from 12.8% to -2.02%.

For Br.N#Cc1ccc(OCC(=O)NN2Cc3ccccc3C2=N)cc1, the “hERG current change (%, negative = inhibition) at 10uM” value was 4.14%.
